# In article PMC6919601, “Identification of Plasmodium dipeptidyl aminopeptidase allosteric inhibitors by high throughput screening” (PLoS ONE, 2019):
# Where “and” joins values, the source holds several entries; their conditions need not be identical. Equal values may be shown once. In all, about 110,000 compounds went through this assay and about 230 (0.21%) showed an effect of 50% or more. Some of the results follow.
# Target: DPAP1 (Plasmodium falciparum, UniProt Q8IIJ9)
# Assay: primary screen, percent inhibition; read by cleavage of a fluorogenic dipeptide substrate; higher = more effect of the substance
# Parameters: species or system P. falciparum D10 trophozoite lysates; single well
# 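Further: 30 min substrate incubation versus DMSO and 10 µM JCP410 controls.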
# Chain of DPAP1 (Q8IIJ9 whole entry, looked up): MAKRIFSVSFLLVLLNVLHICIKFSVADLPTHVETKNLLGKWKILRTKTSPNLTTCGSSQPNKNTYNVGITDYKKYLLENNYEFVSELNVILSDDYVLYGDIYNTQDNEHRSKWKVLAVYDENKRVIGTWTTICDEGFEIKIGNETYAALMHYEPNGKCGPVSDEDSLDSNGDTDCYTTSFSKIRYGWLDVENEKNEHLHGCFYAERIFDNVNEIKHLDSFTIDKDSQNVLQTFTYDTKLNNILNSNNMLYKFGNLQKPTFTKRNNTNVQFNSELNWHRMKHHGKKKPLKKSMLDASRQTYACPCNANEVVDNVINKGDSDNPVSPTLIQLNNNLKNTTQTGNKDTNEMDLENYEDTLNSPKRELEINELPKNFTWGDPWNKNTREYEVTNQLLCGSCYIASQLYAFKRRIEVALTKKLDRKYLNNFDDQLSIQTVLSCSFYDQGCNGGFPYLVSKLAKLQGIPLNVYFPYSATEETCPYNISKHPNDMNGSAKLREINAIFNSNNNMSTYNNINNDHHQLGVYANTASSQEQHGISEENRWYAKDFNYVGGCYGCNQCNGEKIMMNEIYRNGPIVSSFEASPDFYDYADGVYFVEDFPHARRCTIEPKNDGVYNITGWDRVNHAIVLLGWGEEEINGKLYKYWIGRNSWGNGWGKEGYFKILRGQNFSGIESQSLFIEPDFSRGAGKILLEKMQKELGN
row,SMILES,% Inhibition @ 10 uM
1,COc1ccc(C2=[N+]([O-])C(C)(C)C(c3ccccc3)=N2)cc1,-3.21%
2,COc1ccc(S(=O)(=O)Nc2ccccc2C(=O)NC(C)c2ccccc2)cc1Br (centres unmarked),-0.545%
3,CC(C)C[C@H](NC(=O)c1ccc(C(C)N2CCN(C)CC2)cc1)C(=O)NCC#N (some centres unmarked),-5.64%
4,CCOc1ccc(C2C(C#N)=C(N)OC3=C2C(=O)CC(C)(C)C3)cc1OC (centres unmarked),-4.76%
5,Cc1ccc(CS(=O)(=O)CCC(=O)O)cc1,1.42%
6,Oc1nc(-c2cccc(Cl)c2)nc2c1Cc1ccccc1O2,-2.84%
7,Cc1ccc(S(=O)(=O)C2CC(C)C(=O)N(Cc3ccccc3)C2=O)cc1 (centres unmarked),-1.55%
8,Cc1ccc(NC(=O)CN2C(=O)N/C(=C/c3ccc(OCC(C)C)cc3)C2=O)cc1,5.49%
9,CC1(C)CC2(CCO1)OC(=O)CC2C(=N)S (centres unmarked),-2.42%
10,CC1=C(C)CC2C(=O)N(c3cccc(C)c3C)C(=O)C2C1 (centres unmarked),0.913%
11,Cc1nc2cc(NC(=O)Nc3cccc(C(F)(F)F)c3)ccc2n1C,-4.6%
12,COc1ccccc1C1C2=C(O)CC(C)(C)CC2=Nc2ccccc2N1C(C)=O (centres unmarked),-7.02%
13,OCC1CCCCN1Cc1c(F)cccc1Cl (centres unmarked),-5.65%
14,COc1ccc(C2=N/C(=C\c3cccnc3)C(=O)O2)c(Cl)c1,2.11%
15,CCOc1cc2c(cc1OCC)C(c1ccc(OC)c(OC)c1)NCC2 (centres unmarked),-1.79%
16,C/C(=N\CCc1c[nH]c2ccccc12)C1=C(O)c2ccccc2C1=O,4.32% and -0.467%
17,O=C(c1ccc(COc2ccccc2Cl)o1)N1CCCC1,-0.988%
18,Cc1c(C(=O)NCc2ccccc2Cl)oc2c1-c1n[nH]cc1CC2,2.27%
19,CC1=C(C(=O)Nc2ccccc2)C(c2cccs2)NC(S)=N1 (centres unmarked),-0.294%
20,O=c1c2ccccc2nc(CN2CCN(Cc3ccccc3)CC2)n1-c1ccc(F)cc1,-7.17%
21,CNc1nc2c(s1)C(=O)CC(C)(C)C2,-0.711%

row,SMILES,% Inhibition @ 10 uM
1,Cc1nn(CC(=O)N2CCOCC2)c(=O)c2nn(-c3ccccc3)c(C)c12,-5.74%
2,Cc1ccccc1-n1c(SCc2ccccn2)nc2nnc(C)c-2c1N,0.992%
3,O=C(COc1ccc(Br)cc1Cl)Nc1ccc(S(=O)(=O)N2CCOCC2)cc1,-3.04%
4,Cn1c(C(Cc2ccccc2)NC(=O)c2ccc(F)cc2)nc2ccccc21 (centres unmarked),0.813%
5,COc1ccc(C(=O)CC2(O)C(=O)N(CCc3ccccc3)c3ccccc32)cc1OC (centres unmarked),-7.23%
6,O=C(CSc1nc2c(c(=O)n1CCc1ccccc1)SCC2)N1CCCCC1,3.25%
7,COc1ccc(-c2noc(CN(C(=O)COc3ccc(C)cc3Br)C(C)C)n2)cc1,1.66%
8,COc1ccccc1N1CCN(C(=O)CN(c2ccccc2C)S(C)(=O)=O)CC1,-1.79%
9,CC(CCCC(C)(C)O)NC1CCN(C)CC1 (centres unmarked),5.03%
10,CCCNC(=O)C1CC(c2ccccc2F)=NO1 (centres unmarked),-5.79%
11,CC1(C)CC(=O)C(=C2C(=O)c3ccccc3C(O)=C2Cl)C(=O)C1,6.27%
12,C/C(Cl)=C/CN1C(=O)C2CC=C(Cl)CC2C1=O (centres unmarked),-2.14%
13,CCCN1CCN(C(=O)c2cc3c(O)nc4ccc(C)cc4c3s2)CC1,9.26%
14,Cc1c(C(=O)NC(C)CCc2ccccc2)oc2ccc(S(=O)(=O)N3CCOCC3)cc12 (centres unmarked),1.14%
15,C=CCOc1ccc(/C=C2/SC(=O)N(CC(=O)N3CCN(c4ccccc4)CC3)C2=O)cc1,1.89%
16,CCN(CC)CCNC(=O)CN1Cc2c(cnn2-c2ccccc2)C1=O,5%
17,COc1ccc(NS(=O)(=O)C[C@H](CCCCN)NC(=O)[C@H](CS(=O)(=O)Cc2ccccc2)NC(=O)N2CCOCC2)cc1,-5.21%
18,C=C(C)Cn1c(SCC#N)nc2sc3c(c2c1=O)CCC3,1.01%
19,O=C(c1ccc(Cl)c([N+](=O)[O-])c1)N1CCCCC1,3.32%
20,COc1ccccc1C1C2=C(O)CCCC2=NC(C)=C1C(=O)Nc1c(F)cccc1F (centres unmarked),6.92%
21,O=C(CN1C(=O)CSc2ncccc21)NCCC1=CCCCC1,-4.15%

row,SMILES,% Inhibition @ 10 uM
1,O=C(O)Cc1ccc(-n2cnnn2)cc1,1%
2,Oc1c(/C=N/Cc2cccnc2)c(-c2ccccc2)nn1-c1nc2ccccc2s1,5.24%
3,O=C(CSc1nc2c(c(=O)n1Cc1ccccc1)SCC2)NCC1CCCO1 (centres unmarked),-4.93%
4,COc1ccc(-c2nc(CN3CCC(C(=O)N4CCOCC4)CC3)c(C)o2)cc1OC,-2.85%
5,O=C(CN1C(=O)c2ccccc2S1(=O)=O)N1CCN(Cc2ccccc2)CC1,-6.49%
6,Cc1ccc(-c2c(NCCC3=CCCCC3)c(=O)c2=O)cc1,-1.11%
7,c1ccc(-c2noc(-c3cccc4ccccc34)n2)cc1,-5.62%
8,COc1ccc(CN2CCCCCC2)cc1OC,2.33%
9,CN(C)Cc1cc(CN(C)C)c(O)c(CCc2ccccc2)n1,0.716%
10,O=C(CN1C(=O)c2ccccc2Sc2ncccc21)NCCCN1CCCCC1,0.436%
11,Cc1nn(CC(=O)NCCN2CCCCC2C)c(=O)c2nn(-c3ccccc3)c(C)c12 (centres unmarked),4.65%
12,CN(Cc1ccccc1)C(=O)c1ccc(CS(=O)(=O)Cc2ccc(Cl)cc2)o1,-4.97%
13,CC1(C)CC(=O)C2=C(C1)OC(N)=C(C#N)C2c1ccc(F)c(F)c1 (centres unmarked),3.54%
14,N#CCNC(=O)[C@H](Cc1ccccc1F)NC(=O)OCc1ccccc1,-3.48%
15,COCCCNC(=O)c1ccc2c(c1)sc1nc(-c3ccc(OC)cc3)cn12,5.08%
16,Cc1cc(NC(=O)CSc2nc3ncccc3c(=O)n2CCc2ccccc2)[nH]n1,-1.66%
17,CCOc1cc(C2c3c(-c4ccccc4O)n[nH]c3C(=O)N2CCCO)ccc1OCCC(C)C (centres unmarked),-1.35%
18,CCCNC(=O)c1ccc2c(c1)c(C)c(C)n2Cc1ccccc1,-6.45%
19,Cc1cccc(C(=O)Nc2ccccc2N2CCN(C(=O)C(C)C)CC2)c1,-1.44%
20,COc1ccc(S(=O)(=O)N2CCCC(C(=O)N3CCC(Cc4ccccc4)CC3)C2)cc1 (centres unmarked),-3.13%
